Laboratory results from the BET-seq Pho4 binding data (Le et al. 2018).
The list shows a part of the results. These are noisy estimates, calculated here from bound and input reads.

The sequences below were run against T1, Pho4 (S. cerevisiae) (UniProt P07270) (assay: relative binding free energy (BET-seq); higher = weaker binding). Conditions: reference: library average.
T1 sequence: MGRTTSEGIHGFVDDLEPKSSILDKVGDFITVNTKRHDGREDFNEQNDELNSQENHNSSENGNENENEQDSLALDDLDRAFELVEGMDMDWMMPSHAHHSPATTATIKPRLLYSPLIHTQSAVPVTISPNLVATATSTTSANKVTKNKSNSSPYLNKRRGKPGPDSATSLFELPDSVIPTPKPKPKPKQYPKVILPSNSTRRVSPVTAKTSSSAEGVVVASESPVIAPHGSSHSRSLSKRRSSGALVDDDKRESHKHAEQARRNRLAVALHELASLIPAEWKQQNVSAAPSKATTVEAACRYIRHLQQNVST

Row | Sequence | relative binding free energy
1 | GTTTCCACGTGAGGAT | 0.3 kcal/mol
2 | GTGTGCACGTGGAGAT | 0.02 kcal/mol
3 | TAGTGCACGTGTCGTT | -0.03 kcal/mol
4 | CGGGGCACGTGGAAGG | -0.06 kcal/mol
5 | TAGATCACGTGAATTG | 0.4 kcal/mol
6 | TTATGCACGTGCGCTA | -0.05 kcal/mol
7 | CTGTTCACGTGAGAGG | 0.41 kcal/mol
8 | CTTAGCACGTGTTTTT | -0.11 kcal/mol
9 | GTTTCCACGTGGAAGG | 0.25 kcal/mol
10 | TTATCCACGTGTATTT | 0.09 kcal/mol
11 | TTCGACACGTGAGTTT | 0.22 kcal/mol
12 | CGGGTCACGTGTATAG | 0.04 kcal/mol
13 | TGGGGCACGTGCTCGA | -0.28 kcal/mol
14 | TATGTCACGTGGACTA | 0.08 kcal/mol
15 | AACTGCACGTGGTTGT | -0.08 kcal/mol
16 | ATGGACACGTGTATAG | 0.11 kcal/mol
17 | GGGTTCACGTGAGTGA | 0.4 kcal/mol
18 | TCAAGCACGTGGAGTG | -0.03 kcal/mol
19 | TTTTCCACGTGGGCTA | 0.01 kcal/mol
20 | CGTAGCACGTGTGGTA | -0.07 kcal/mol
21 | GAAATCACGTGGGTAT | 0.11 kcal/mol
22 | GGAAGCACGTGGATCG | 0.11 kcal/mol
23 | CTTGTCACGTGAGATT | 0.24 kcal/mol

Row | Sequence | relative binding free energy
24 | GCAGGCACGTGGGGTT | -0.25 kcal/mol
25 | GTTCTCACGTGTTTTG | 0.24 kcal/mol
26 | TGGTGCACGTGAAAAA | 0.29 kcal/mol
27 | AGCGGCACGTGGTGTC | -0.09 kcal/mol
28 | TGTATCACGTGCGTAA | 0.15 kcal/mol
29 | TCGTGCACGTGAGGTG | 0.13 kcal/mol
30 | GGGTGCACGTGCTGCG | -0.03 kcal/mol
31 | TTATTCACGTGAAAGG | 0.53 kcal/mol
32 | GGTGTCACGTGGTGTA | 0.03 kcal/mol
33 | GACGGCACGTGTAGGT | 0.02 kcal/mol
34 | ATAGGCACGTGCATTG | -0.19 kcal/mol
35 | GGGAACACGTGTTTAG | 0.13 kcal/mol
36 | TGGGTCACGTGCAAAG | 0.11 kcal/mol
37 | TTGAGCACGTGAAGAG | 0.27 kcal/mol
38 | AAATTCACGTGCGTTT | 0.17 kcal/mol
39 | ATGAGCACGTGCAGTG | -0.15 kcal/mol
40 | TCAATCACGTGATGGG | 0.23 kcal/mol
41 | TACCGCACGTGGGGGT | -0.21 kcal/mol
42 | GGGGTCACGTGGTCTG | 0.1 kcal/mol
43 | GGAGCCACGTGGGGCT | -0.18 kcal/mol
44 | TGTGGCACGTGGACGC | -0.12 kcal/mol
45 | TTTTCCACGTGTTATG | 0.06 kcal/mol
46 | AGTTGCACGTGAAGGG | 0.39 kcal/mol

Row | Sequence | relative binding free energy
47 | ATGGTCACGTGTCGGA | 0.14 kcal/mol
48 | GCATTCACGTGTGGAT | 0.22 kcal/mol
49 | GGTGTCACGTGTGCGT | -0.02 kcal/mol
50 | TTGGTCACGTGTAAAT | 0.09 kcal/mol
51 | AGTGGCACGTGCAGTG | -0.13 kcal/mol
52 | AGTTCCACGTGGATGT | -0.06 kcal/mol
53 | GGTATCACGTGCGTTT | 0.19 kcal/mol
54 | CGTGACACGTGTAGGG | -0.12 kcal/mol
55 | AGTCACACGTGGTGAG | -0.07 kcal/mol
56 | AGCGGCACGTGGTAAT | -0.1 kcal/mol
57 | AGTTTCACGTGACTGG | 0.28 kcal/mol
58 | TATGGCACGTGGGGGT | -0.16 kcal/mol
59 | TTGGGCACGTGGATCG | 0.02 kcal/mol
60 | AGACTCACGTGTGTGT | 0.13 kcal/mol
61 | GGATACACGTGAGGGC | 0.2 kcal/mol
62 | TCGATCACGTGGGTCT | 0 kcal/mol
63 | CTTTACACGTGTGGCT | 0.24 kcal/mol
64 | AGATGCACGTGGGAGG | -0.25 kcal/mol
65 | TATTGCACGTGTGTAT | 0.02 kcal/mol
66 | TATGGCACGTGTATTC | -0.13 kcal/mol
67 | AGTTGCACGTGTACGT | 0.05 kcal/mol
68 | GTAGTCACGTGCGGCT | 0.23 kcal/mol
69 | AATATCACGTGTATTA | 0.09 kcal/mol

Row | Sequence | relative binding free energy
70 | TTATTCACGTGGATCG | 0.24 kcal/mol
71 | GGGCGCACGTGTCAGT | -0.09 kcal/mol
72 | TGTGTCACGTGTAAGC | 0.2 kcal/mol
73 | CAATTCACGTGGGGTG | 0.18 kcal/mol
74 | CGGGACACGTGGTTTT | 0.06 kcal/mol
75 | GGTCGCACGTGATGGT | 0.22 kcal/mol
76 | AAAAGCACGTGGTCGG | -0.09 kcal/mol
77 | TATTCCACGTGCGGGT | 0.04 kcal/mol
78 | ATGGGCACGTGAGTAG | 0.12 kcal/mol
79 | GGAAGCACGTGTGGCG | -0.19 kcal/mol
80 | AGTTCCACGTGAATTT | 0.22 kcal/mol
81 | TTTGGCACGTGAGTAA | 0.2 kcal/mol
82 | GTTATCACGTGTGCGC | 0.19 kcal/mol
83 | AAGGTCACGTGAGGCT | 0.2 kcal/mol
84 | TTTATCACGTGCATTG | 0.07 kcal/mol
85 | TATGGCACGTGCTGCG | -0.19 kcal/mol
86 | GGTGTCACGTGATATT | 0.2 kcal/mol
87 | CAGGACACGTGAGGGG | 0.34 kcal/mol
88 | ATGGTCACGTGTGCCG | 0.13 kcal/mol
89 | CTTTCCACGTGTGGGG | 0.03 kcal/mol
90 | TCTTGCACGTGAAGGG | 0.12 kcal/mol
91 | GGGATCACGTGATCGT | 0.37 kcal/mol
92 | GTGGGCACGTGCATTA | -0.17 kcal/mol

Row | Sequence | relative binding free energy
93 | TATTTCACGTGGTTTG | 0.29 kcal/mol
94 | TAGCGCACGTGTCGGG | -0.19 kcal/mol
95 | GGTCACACGTGGTTTA | 0.17 kcal/mol
96 | GTGGACACGTGTATAT | 0.2 kcal/mol
97 | AGGGCCACGTGGGGAA | -0.19 kcal/mol
98 | AGCGTCACGTGATGGT | 0.18 kcal/mol
99 | AATAGCACGTGGGGGA | -0.17 kcal/mol
100 | TGTAGCACGTGGAATT | 0.08 kcal/mol
101 | AGCGTCACGTGACGTG | 0.08 kcal/mol
102 | TCGGTCACGTGGTCGT | 0.07 kcal/mol
103 | TCGGTCACGTGGTTGT | 0.07 kcal/mol
104 | ATTAGCACGTGAGTCT | 0.19 kcal/mol
105 | CGGAGCACGTGGCGTT | -0.1 kcal/mol
106 | CTGAGCACGTGGGGTG | -0.36 kcal/mol
107 | AGTGTCACGTGGCTCT | 0.05 kcal/mol
108 | ATAGTCACGTGTACTG | 0.01 kcal/mol
109 | TTTCTCACGTGGTTGT | 0.17 kcal/mol
110 | TACGGCACGTGAATGT | 0.17 kcal/mol
111 | TGCTGCACGTGGTAGT | -0.08 kcal/mol
112 | GTCAACACGTGGGTGG | -0.03 kcal/mol
113 | ATGAACACGTGTGGGT | 0.04 kcal/mol
114 | ACGGGCACGTGTCGGT | -0.04 kcal/mol
115 | GGGAGCACGTGTGTTC | 0.03 kcal/mol
